Measurements published in article PMC4336329 (PLoS ONE, 2015).
Hit rate of the full screen: of about 310,000 compounds, about 2,200 (0.71%) showed an effect of 50% or more. The effect is printed as a negative number. The list shows a part of the results.

biological target: human ether-à-go-go-related gene (hERG) potassium channel (human, UniProt Q12809); assay: primary screen, population patch clamp on CHO cells stably expressing hERG
Sequence (Q12809 whole entry, looked up): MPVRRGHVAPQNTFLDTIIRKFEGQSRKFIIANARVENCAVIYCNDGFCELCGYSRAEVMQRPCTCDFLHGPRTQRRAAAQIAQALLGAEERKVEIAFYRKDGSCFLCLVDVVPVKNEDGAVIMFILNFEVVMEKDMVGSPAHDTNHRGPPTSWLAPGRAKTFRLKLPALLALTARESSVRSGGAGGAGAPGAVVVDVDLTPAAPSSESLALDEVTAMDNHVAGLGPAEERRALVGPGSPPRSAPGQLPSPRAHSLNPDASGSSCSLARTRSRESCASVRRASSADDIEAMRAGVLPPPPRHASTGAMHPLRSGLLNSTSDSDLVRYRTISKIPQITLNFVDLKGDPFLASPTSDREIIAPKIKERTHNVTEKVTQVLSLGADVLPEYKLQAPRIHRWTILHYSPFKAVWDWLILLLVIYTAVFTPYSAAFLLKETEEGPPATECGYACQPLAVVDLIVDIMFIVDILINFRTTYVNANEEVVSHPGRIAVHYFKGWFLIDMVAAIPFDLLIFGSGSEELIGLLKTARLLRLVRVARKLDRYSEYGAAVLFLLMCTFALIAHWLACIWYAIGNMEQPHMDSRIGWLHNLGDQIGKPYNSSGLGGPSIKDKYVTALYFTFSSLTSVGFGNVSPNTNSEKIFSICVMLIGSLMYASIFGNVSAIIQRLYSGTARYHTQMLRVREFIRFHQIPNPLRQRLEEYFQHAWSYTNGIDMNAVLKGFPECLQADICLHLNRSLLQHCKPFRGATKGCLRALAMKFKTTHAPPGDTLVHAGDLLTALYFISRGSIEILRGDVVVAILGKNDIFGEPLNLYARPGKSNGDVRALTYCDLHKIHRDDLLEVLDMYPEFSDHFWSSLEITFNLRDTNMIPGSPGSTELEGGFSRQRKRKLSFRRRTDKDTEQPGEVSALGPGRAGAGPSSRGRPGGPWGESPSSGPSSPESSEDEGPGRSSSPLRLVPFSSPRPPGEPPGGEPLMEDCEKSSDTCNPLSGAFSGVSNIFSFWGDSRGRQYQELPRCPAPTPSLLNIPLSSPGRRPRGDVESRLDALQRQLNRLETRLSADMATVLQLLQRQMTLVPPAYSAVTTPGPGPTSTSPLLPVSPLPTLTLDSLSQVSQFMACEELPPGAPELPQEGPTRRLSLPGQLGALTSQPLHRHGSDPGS

Compared with `CN(C)S(=O)(=O)n1cc(/C=C(\NC(=O)c2ccccc2)C(=O)N2CCOCC2)c2ccccc21`, `CC1CCN(C(=O)c2ccc(NS(=O)(=O)c3ccccc3)cc2)CC1` is lower in “hERG current change (%, negative = inhibition) at 1uM” value: 15.1% for the first, 6.83% for the second.

Compared with `COc1cc2[nH]c(=O)n3nc(-c4ccccc4)nc3c2cc1OC`, `COc1ccc(CNc2nc(S(=O)(=O)c3ccccc3)c(Cl)s2)cc1OC` is higher in “hERG current change (%, negative = inhibition) at 1uM” value: -6.85% for the first, 2.1% for the second.

Going from `COc1ccccc1NC(=O)Nc1ccc2c(c1)nc(C)n2C` to `COc1ccccc1NC(=O)CSc1ccc2nnc(-c3ccncc3)n2n1`, the “hERG current change (%, negative = inhibition) at 1uM” value falls from 0.679% to -7.81%.

Compared with `C#CCOc1ccc(Cl)cc1/C=N/O`, `CCOc1ccc(Cl)cc1CNc1nnnn1CC` is higher in “hERG current change (%, negative = inhibition) at 1uM” value: 7.06% for the first, 16.7% for the second.

Compared with `CC(=O)Nc1ccc(NC(=O)C2CC(=O)N(Cc3ccccc3)C2)cc1` (stereo not drawn), `CCOc1ccc(NC(=O)c2nnn(CC(=O)Nc3ccccc3OCC)c2N)cc1` is lower in “hERG current change (%, negative = inhibition) at 1uM” value: 3.46% for the first, 1.93% for the second.

First: COc1ccccc1C(=O)OCC(=O)c1cccc([N+](=O)[O-])c1
Second: Cc1ccccc1NC(=S)Nc1cccc([N+](=O)[O-])c1
The “hERG current change (%, negative = inhibition) at 1uM” value of the first is higher: 14.1% for the first, 13.8% for the second.

First: Cc1ccc(C(C(=O)NCC2CCCO2)N(C(=O)c2snc(C(N)=O)c2N)c2ccccc2)o1 (stereo not drawn)
Second: Cc1nc(COc2ccc(C(=O)NCc3ccccc3CN3CCCCC3)cc2)cs1
The “hERG current change (%, negative = inhibition) at 1uM” value of the first is higher: 11% for the first, -10.6% for the second.

Going from `CCCCOC(=O)/C=C/c1c(C)[nH]c(=O)[nH]c1=O` to `COCCCN1CC(=O)N2C(c3cccc(C)c3)c3[nH]c4ccccc4c3C[C@H]2C1=O` (stereo partly drawn), the “hERG current change (%, negative = inhibition) at 1uM” value rises from -7.74% to 11.4%.

First: O=C1Nc2ccc(Cl)cc2C12OCCCO2
Second: CC12CN3CC(C)(CN(C1)C3c1c[nH]c3ccccc13)C2=O (stereo not drawn)
The “hERG current change (%, negative = inhibition) at 1uM” value of the first is higher: 13.9% for the first, -5.41% for the second.

Going from `CCOC(=O)C1(C)/C(=N/Nc2ccc(S(N)(=O)=O)cc2)C(=O)C(=O)N1c1ccccc1` (stereo not drawn) to `CC(Sc1ccccn1)C(=O)Nc1ccc(S(N)(=O)=O)cc1` (stereo not drawn), the “hERG current change (%, negative = inhibition) at 1uM” value rises from 9.34% to 16.2%.

First: COc1cccc(OCCN2CCN(c3ncnc4c3cnn4-c3ccccc3)CC2)c1
Second: CCc1cccc(NC(=O)CCCn2nc(C)c3c(C)n(-c4ccccc4)nc3c2=O)c1
The “hERG current change (%, negative = inhibition) at 1uM” value of the first is higher: 5.37% for the first, -4.25% for the second.

Going from `O=C1NCC(=O)N2CCC[C@@H]12` to `O=C1CCC(C(=O)Nc2ccc(OC(F)F)cc2)N1` (stereo not drawn), the “hERG current change (%, negative = inhibition) at 1uM” value rises from -2.55% to 5.68%.

Compared with `CCCn1c(NCc2ccc3c(c2)OCO3)nc2ccccc21`, `CN(C)CC(C)(C)CNCc1cc(=O)oc2ccc3ccccc3c12` is lower in “hERG current change (%, negative = inhibition) at 1uM” value: 13.9% for the first, 10.1% for the second.

Compared with `Cc1ccc(Sc2ncccc2C(=O)O)c(C)c1`, `Cc1ccc(-c2nc(Nc3cccc(C)c3)sc2CC(=O)O)cc1` is lower in “hERG current change (%, negative = inhibition) at 1uM” value: 11.2% for the first, 9.35% for the second.

Compared with `CC(=O)c1ccc(Nc2nc(-c3cccnc3)cs2)cc1`, `CCOC(=O)c1c(-c2cccc(N)c2)cn2ccccc12` is higher in “hERG current change (%, negative = inhibition) at 1uM” value: 11.4% for the first, 14% for the second.

Compared with `O=C(NCCN1CCCC1)C1(S(=O)(=O)c2ccc(Cl)cc2)CC1`, `CCOc1ccc(N(CC(=O)N2CCCC2)S(=O)(=O)c2ccc(F)cc2)cc1` is lower in “hERG current change (%, negative = inhibition) at 1uM” value: 6.96% for the first, -3.22% for the second.

Compared with `O=C(Cc1ccccc1)N/N=C/c1cc(Br)cs1`, `CC(CCc1ccccc1)NC(=O)COC(=O)c1cccs1` (stereo not drawn) is lower in “hERG current change (%, negative = inhibition) at 1uM” value: 15.1% for the first, 11.7% for the second.

Going from `COCCn1c(SCC(=O)Nc2cccnc2Cl)nc2ccccc2c1=O` to `c1ccc2c(NC3=NCCS3)cccc2c1`, the “hERG current change (%, negative = inhibition) at 1uM” value falls from 16.9% to 8.46%.

Compared with `COc1cccc2c1OCC(C(=O)O)C2` (stereo not drawn), `CCOC(=O)c1cccc(C(=O)OCC)n1` is lower in “hERG current change (%, negative = inhibition) at 1uM” value: 22.3% for the first, 8.42% for the second.

Going from `COc1ccc(-c2coc3c(CN4CCCCC4)c(O)c(CN4CCCCC4)c(O)c3c2=O)cc1` to `CCOC(=O)Nc1ccc(S(=O)(=O)Nc2cc(C)nc(C)n2)cc1`, the “hERG current change (%, negative = inhibition) at 1uM” value rises from -88% to 1.71%.

Compared with `CN(C)S(=O)(=O)c1ccc(NC(=S)NC(=O)c2ccc(Br)o2)cc1`, `NS(=O)(=O)c1ccc(CCNc2ncnc3sccc23)cc1` is lower in “hERG current change (%, negative = inhibition) at 1uM” value: 14.2% for the first, 9.58% for the second.

Compared with `Cc1nc(-c2ccccc2)cc(=O)[nH]1`, `CC1(C)Nc2ccccc2C(=O)N1c1ccc(Br)cc1` is lower in “hERG current change (%, negative = inhibition) at 1uM” value: 14.8% for the first, 13% for the second.

For `CCN(CC)CCCNC(=O)Cn1nc([N+](=O)[O-])c(Cl)c1C`, the “hERG current change (%, negative = inhibition) at 1uM” value was 25.6%.
